# Laboratory results taken from the supplement of paper PMC8728848.
# The list shows a part of the results.
# B1: Banana lectin (Musa acuminata) (protein)
# chain: MNGAIKVGAWGGNGGSAFDMGPAYRIISVKIFSGDVVDGVDVTFTYYGKTETRHYGGSGGTPHEIVLQEGEYLVGMAGEVANYTGAVVLGKLGFSTNKKAYGPFGNTGGTPFSLPIAAGKISGFFGRGGKFLDAIGVYLEPLEHHHHHH
# Assays:
# Test in all cases: glycan array binding signal (z-score within array); higher = stronger binding
# Settings in all cases: glycan notation: IUPAC condensed, linker removed; mutation: H84T
# [1] = target: Fuc(a1-2)Gal
# How it was run: (§1)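 From the Consortium for Functional Glycomics database, 3228 arrays were curated, keeping only those whose protein sequence was available. Binding is given as a within-array Z-score averaged across arrays sharing a protein sequence and across linkers. Negative Z-scores can be read as non-binding.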
# [2] = target: Fuc(a1-2)Gal(b1-3)GalNAc
# How it was run: as §1
# [3] = target: Fuc(a1-2)Gal(b1-3)GalNAc(a1-3)[Fuc(a1-2)]Gal(b1-4)Glc
# How it was run: as §1
# [4] = target: Fuc(a1-2)Gal(b1-3)GalNAc(a1-3)[Fuc(a1-2)]Gal(b1-4)GlcNAc
# How it was run: as §1
# [5] = target: Fuc(a1-2)Gal(b1-3)GalNAc(b1-3)Gal
# How it was run: as §1
# [6] = target: Fuc(a1-2)Gal(b1-3)GalNAc(b1-3)Gal(a1-4)Gal(b1-4)Glc
# How it was run: as §1
# [7] = target: Fuc(a1-2)Gal(b1-3)GalNAc(b1-4)[Neu5Ac(a2-3)]Gal(b1-4)Glc
# How it was run: as §1
# [8] = target: Fuc(a1-2)Gal(b1-3)GlcNAc
# How it was run: as §1
# [9] = target: Fuc(a1-2)Gal(b1-3)GlcNAc(b1-2)Man(a1-3)[Fuc(a1-2)Gal(b1-3)GlcNAc(b1-2)Man(a1-6)]Man(b1-4)GlcNAc(b1-4)GlcNAc
# How it was run: as §1
# [10] = target: Fuc(a1-2)Gal(b1-3)GlcNAc(b1-2)Man(a1-3)[Fuc(a1-2)Gal(b1-3)GlcNAc(b1-2)Man(a1-6)]Man(b1-4)GlcNAc(b1-4)[Fuc(a1-6)]GlcNAc
# How it was run: as §1
# [11] = target: Fuc(a1-2)Gal(b1-3)GlcNAc(b1-3)Gal(b1-4)Glc
# How it was run: as §1
# [12] = target: Fuc(a1-2)Gal(b1-3)GlcNAc(b1-3)GalNAc
# How it was run: as §1
# [13] = target: Fuc(a1-2)Gal(b1-3)GlcNAc(b1-3)[Fuc(a1-2)Gal(b1-3)GlcNAc(b1-6)]GalNAc
# How it was run: as §1
# [14] = target: Fuc(a1-2)Gal(b1-3)GlcNAc(b1-3)[Gal(b1-4)GlcNAc(b1-6)]Gal(b1-4)Glc
# How it was run: as §1
# [15] = target: Fuc(a1-2)Gal(b1-3)GlcNAc(b1-3)[Neu5Ac(a2-6)Gal(b1-4)GlcNAc(b1-6)]Gal(b1-4)Glc
# How it was run: as §1
# [16] = target: Fuc(a1-2)Gal(b1-3)GlcNAc6S
# How it was run: as §1
# [17] = target: Fuc(a1-2)Gal(b1-3)[Fuc(a1-4)]GlcNAc
# How it was run: as §1
# [18] = target: Fuc(a1-2)Gal(b1-3)[Fuc(a1-4)]GlcNAc(b1-2)Man(a1-3)[Fuc(a1-2)Gal(b1-3)[Fuc(a1-4)]GlcNAc(b1-2)Man(a1-3)]Man(b1-4)GlcNAc(b1-4)GlcNAc
# How it was run: as §1
# [19] = target: Fuc(a1-2)Gal(b1-3)[Fuc(a1-4)]GlcNAc(b1-2)Man(a1-3)[Fuc(a1-2)Gal(b1-3)[Fuc(a1-4)]GlcNAc(b1-2)Man(a1-6)]Man(b1-4)GlcNAc(b1-4)[Fuc(a1-6)]GlcNAc(b1-4)[Fuc(a1-6)]GlcNAc
# How it was run: as §1
# [20] = target: Fuc(a1-2)Gal(b1-3)[Fuc(a1-4)]GlcNAc(b1-3)[Fuc(a1-3)[Gal(b1-4)]GlcNAc(b1-6)]Gal(b1-4)Glc
# How it was run: as §1
# [21] = target: Fuc(a1-2)Gal(b1-3)[Fuc(a1-4)]GlcNAc(b1-3)[Gal(b1-4)GlcNAc(b1-6)]Gal(b1-4)Glc
# How it was run: as §1
# [22] = target: Fuc(a1-2)Gal(b1-4)Fuc(a1-3)]GlcNAc(b1-2)Man(a1-3)[Fuc(a1-2)Gal(b1-4)[Fuc(a1-3)]GlcNAc(b1-2)Man(a1-6)]Man(b1-4)GlcNAc(b1-4)GlcNAc
# How it was run: as §1
# [23] = target: Fuc(a1-2)Gal(b1-4)Glc
# How it was run: as §1
# [24] = target: Fuc(a1-2)Gal(b1-4)Glc6S
# How it was run: as §1
# [25] = target: Fuc(a1-2)Gal(b1-4)GlcNAc
# How it was run: as §1
# [26] = target: Fuc(a1-2)Gal(b1-4)GlcNAc(b1-2)Man
# How it was run: as §1
# [27] = target: Fuc(a1-2)Gal(b1-4)GlcNAc(b1-2)Man(a1-3)[Fuc(a1-2)Gal(b1-4)GlcNAc(b1-2)Man(a1-6)]Man(b1-4)GlcNAc(b1-4)GlcNAc
# How it was run: as §1
# [28] = target: Fuc(a1-2)Gal(b1-4)GlcNAc(b1-2)Man(a1-3)[Fuc(a1-2)Gal(b1-4)GlcNAc(b1-2)Man(a1-6)]Man(b1-4)GlcNAc(b1-4)[Fuc(a1-6)]GlcNAc
# How it was run: as §1
# [29] = target: Fuc(a1-2)Gal(b1-4)GlcNAc(b1-2)[Fuc(a1-2)Gal(b1-4)GlcNAc(b1-4)]Man(a1-3)[Fuc(a1-2)Gal(b1-4)GlcNAc(b1-2)Man(a1-6)]Man(b1-4)GlcNAc(b1-4)GlcNAc
# How it was run: as §1
# [30] = target: Fuc(a1-2)Gal(b1-4)GlcNAc(b1-3)Gal(b1-4)GlcNAc
# How it was run: as §1
binder,measurement,setting,value
B1,glycan array binding signal (z-score),[1],-0.159
same,glycan array binding signal (z-score),[2],-0.177
same,glycan array binding signal (z-score),[3],-0.171
same,glycan array binding signal (z-score),[4],-0.196
same,glycan array binding signal (z-score),[5],-0.187
same,glycan array binding signal (z-score),[6],-0.169
same,glycan array binding signal (z-score),[7],-0.166
same,glycan array binding signal (z-score),[8],-0.164
same,glycan array binding signal (z-score),[9],0.405
same,glycan array binding signal (z-score),[10],-0.026
same,glycan array binding signal (z-score),[11],-0.177
same,glycan array binding signal (z-score),[12],-0.179
same,glycan array binding signal (z-score),[13],-0.148
same,glycan array binding signal (z-score),[14],-0.131
same,glycan array binding signal (z-score),[15],-0.138
same,glycan array binding signal (z-score),[16],-0.209
same,glycan array binding signal (z-score),[17],-0.144
same,glycan array binding signal (z-score),[18],-0.166
same,glycan array binding signal (z-score),[19],-0.154
same,glycan array binding signal (z-score),[20],-0.189
same,glycan array binding signal (z-score),[21],-0.172
same,glycan array binding signal (z-score),[22],-0.094
same,glycan array binding signal (z-score),[23],-0.2
same,glycan array binding signal (z-score),[24],-0.176
same,glycan array binding signal (z-score),[25],-0.139
same,glycan array binding signal (z-score),[26],-0.166
same,glycan array binding signal (z-score),[27],0.195
same,glycan array binding signal (z-score),[28],0.094
same,glycan array binding signal (z-score),[29],0.043
same,glycan array binding signal (z-score),[30],-0.178
